Source: PubChem BioAssay AID1347073 (National Center for Advancing Translational Sciences (NCATS), 2019)
Hit rate of the full screen: of about 45,000 compounds, about 200 (0.44%) were called active. Inconclusive results (about 7%) are left out. Calls follow the shape of the dose curve; as a rule, active = well fitted activation curve with a large enough effect; inconclusive = small, poorly fitted or top-dose-only effect; inactive = no such curve, though single readings can be large or run the other way. The list shows a part of the results.

test: qHTS of TDP-43 Inhibitors: NCGC Sytravon Library Screen; details: yeast TDP-43 toxicity rescue, BacTiter-Glo growth, 24 h; series mostly up to 46.1 µM; growth rescue (activation): at the top concentration; also: 0% is about no effect; nearly all actives have a fitted effect of over 55% in size
Procedure, shortened: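 TDP-43-expressing yeast, pregrown in raffinose, seeded at OD600 0.02 in galactose medium with compound for 24 hr at 30 deg C. Growth read by BacTiter-Glo luminescence, so rescue of toxicity appears as activation.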

Row | Structure (SMILES) | growth rescue (activation)
1 | CC(C)c1nnc(NC(=O)CSc2nc3ccccc3[nH]2)s1 | inactive: -3.66%
2 | CCn1c(Cc2ccccc2)nnc1SCC(=O)Nc1ccc2c(c1)OCO2 | inactive: 10.5%
3 | Cc1cccc(C(O)c2ncc(-c3ccccc3Cl)[nH]2)c1C (centres undefined) | inactive: 10.5%
4 | O=C(NCc1ccco1)c1ccc2c(c1)N(Cc1ccc(Cl)cc1)CCS2 | inactive: -1.15%
5 | Clc1nnc(N2CCCCC2)c2ccccc12 | inactive: 11%
6 | COc1ccc(/C=C/C(=O)Nc2nonc2NC(C)=O)cc1 | inactive: 19.2%
7 | CC(C)NCC#CCOc1ccc(Cl)cc1 | inactive: -10.9%
8 | COCCSc1nnc(NC(=O)CS(=O)(=O)c2ccccc2)s1 | inactive: -1.93%
9 | Cc1ccc(C(=O)NC(=S)Nc2ccc(N3CCOCC3)cc2)c(C)c1 | inactive: 13.8%
10 | CC(=O)c1c(C)[nH]c(C(=O)Nc2cccc(S(=O)(=O)N3CCCC3)c2)c1C | inactive: 14.6%
11 | COc1ccc(S(=O)(=O)NC(C)C(=O)NCc2ccccn2)cc1Cl (centres undefined) | inactive: -1.17%
12 | COc1c(F)c(F)c(C(=O)O)c(Nc2cccc(C)c2)c1F | inactive: 6.02%
13 | Cc1ccc(N=C(N(C)C)P(=O)(N(C)C)N(C)C)c(C)c1 | inactive: 4.22%
14 | NC(=O)C1CCN(C(=O)c2ccc(F)c(S(=O)(=O)N3CCOCC3)c2)CC1 | inactive: 7.33%
15 | Cc1ccc(-c2nnc(SCC(=O)NC3CC3)o2)cc1 | inactive: 7.52%
16 | CC(C)COC(=O)n1c(=O)oc2ccc(S(=O)(=O)N3CCCCC3)cc21 | inactive: 31.4%
17 | Cc1ccc(S(=O)(=O)N2CCCC2C(=O)OCc2nc3ccccc3s2)cc1 (centres undefined) | inactive: -21.5%
18 | CC1CCCN(C2=C(NS(=O)(=O)c3ccc(Br)cc3)C(=O)c3ccccc3C2=O)C1 (centres undefined) | inactive: -16.4%
19 | NS(=O)(=O)c1cccc(NC(=O)CSc2nnc(-c3ccccc3F)n2C2CC2)c1 | inactive: 3.98%
20 | O=C(CSc1nnc(CNC(=O)c2c(F)cccc2Cl)o1)Nc1ccccc1 | inactive: -11.6%
21 | O=C1CN(c2nnnn2-c2ccccc2)CCN1 | inactive: -46.5%
22 | O=[N+]([O-])c1cnc2nc(-c3ccncc3)nn2c1O | inactive: 10%

Row | Structure (SMILES) | growth rescue (activation)
23 | CCOC(=O)c1c(CN(C)C)n(C)c2ccc(OC(C)=O)cc12 | inactive: -1.47%
24 | CCN(CC)C1CC(=O)N(c2cccc(Cl)c2)C1=O (centres undefined) | inactive: -94%
25 | CCCOc1ccc(S(=O)(=O)N2C(=O)CC(=O)N(Cc3ccc(OCC)cc3)C2=O)cc1 | inactive: 22.3%
26 | Cc1cnc(C(=O)Nc2ccc(N3CCCCC3)cc2)cn1 | inactive: 1.97%
27 | COc1ccccc1S(=O)(=O)Nc1cc(S(=O)(=O)N2CCCCC2)ccc1N1CCOCC1 | inactive: 10.1%
28 | CCOc1ccccc1-n1nnnc1SCC(=O)NC(=O)Nc1ccc2c(c1)OCCO2 | inactive: -6.03%
29 | S=C(c1ccccc1)N1CCN(C(=S)c2ccccc2)CC1 | inactive: 9.06%
30 | N#C/C(=C\c1c[nH]c2ccccc12)C(=O)NC1CC1 | inactive: -8.03%
31 | CC(C)c1ccc(NC(=O)C2=CC=CN3CCS(=O)(=O)N=C23)cc1 | inactive: 19.8%
32 | CCOC(=O)CC1C(=O)NCCN1C(=S)Nc1ccccc1 (centres undefined) | inactive: -1.61%
33 | CSc1ccc(C2N=C(c3ccccc3)NO2)cc1 (centres undefined) | inactive: 4.71%
34 | O=C(O)c1ccc2ncsc2c1 | inactive: 22.7%
35 | COc1cc(C(=O)N[C@H](C(=O)NC2CCCc3ccccc32)C(C)C)cc(OC)c1OC (some centres undefined) | inactive: 13.4%
36 | O=C(CCNS(=O)(=O)c1ccc(Cl)cc1)OCC(=O)c1ccc[nH]1 | inactive: -5.36%
37 | O=C(Nc1ccc(F)c(Cl)c1)c1csc(COCCO)n1 | inactive: 0.984%
38 | CCOc1ccc(-c2nnc(SCC(=O)Nc3cccc(Cl)c3C)o2)cc1 | inactive: 5.82%
39 | CC(Sc1nc(N)cc(=O)[nH]1)C(=O)Nc1cccc(Cl)c1 (centres undefined) | inactive: 19.4%
40 | O=C(CSc1n[nH]c(-c2cccs2)n1)N1CCOCC1 | inactive: -8.78%
41 | CCc1ccc(NC(=O)C2CC(=O)Nc3ncnn32)cc1 (centres undefined) | inactive: -13.9%
42 | COc1cccc(NCc2cc(=O)oc3cc(-c4ccccc4)c(O)cc23)c1 | inactive: 12.1%
43 | Oc1cccc(Nc2nc(-c3ccccc3Cl)nc3ccccc23)c1 | inactive: 12%
44 | COc1ccc(NC(=O)c2cccc(S(=O)(=O)N3CCCC3)c2)cc1OC | inactive: -4.4%

Row | Structure (SMILES) | growth rescue (activation)
45 | Cc1occc1C(=O)N1N=C(C2CC2)CC1(O)C(F)(F)F (centres undefined) | inactive: -12.3%
46 | O=[N+]([O-])c1ccc(-c2cnc(NO)nc2)cc1 | inactive: 10.1%
47 | O=C(O)c1ccc(N=NNc2cccc([N+](=O)[O-])c2)cc1 | inactive: -6.78%
48 | CCc1nc2ccc(C(=O)NCc3ccc4c(c3)OCO4)cn2c1N(CC)CCOC | inactive: 19.6%
49 | CN(Cc1nc2ccc(F)cc2[nH]1)Cc1c(C(=O)N(C)C)nc2ccc(Cl)cn12 | inactive: 4.98%
50 | Cc1c(-c2nc(-c3ccc4c(c3)OCO4)no2)nnn1-c1cccc(C(F)(F)F)c1 | inactive: 11.7%
51 | COc1cccc(NC(=O)C2CCN(c3nnc(-n4c(C)ccc4C)s3)CC2)c1 | inactive: 11.9%
52 | c1ccc(OCc2ccc(CCCN3CCOCC3)cc2)cc1 | inactive: -7.28%
53 | COCc1ccc(C(=O)N2CCCC(C(=O)c3ccc(SC)cc3)C2)s1 (centres undefined) | inactive: -9.38%
54 | COc1cccc(CNC(=O)CCC2CCCN(Cc3cc(Cl)ccc3O)C2)c1 (centres undefined) | inactive: -6.43%
55 | Cc1ccccc1CNC(=O)CC1C(=O)NCCN1Cc1c(F)cccc1Cl (centres undefined) | inactive: -2.59%
56 | Cc1ccc(N=Cc2c(C)[nH]n(-c3ccccc3)c2=O)nc1 | inactive: 23.3%
57 | CCN(CC(=O)Nc1c(F)cccc1F)C(=O)CNC(=O)c1cccc(C)c1 | inactive: -16.3%
58 | COc1ccc(OC)c(NC(=O)COC(=O)CCNc2ccccc2OC)c1 | inactive: 2.86%
59 | CN(C)S(=O)(=O)c1cccc(CSCc2cccc(S(=O)(=O)N(C)C)c2)c1 | inactive: 8.21%
60 | COc1ccc(N(CC(O)Cn2c(C)nc3ccccc32)S(=O)(=O)c2ccc(C)cc2)cc1 (centres undefined) | inactive: 5.56%
61 | CC(C)OP(=O)(OC(C)C)C(NC(=O)c1ccccc1Br)C(N)=O (centres undefined) | inactive: 1.93%
62 | COC(=O)C(CCSC)NC(=O)c1cc2c(n(-c3ccccc3)c1=O)CC(C)(C)CC2=O (centres undefined) | inactive: 0.172%
63 | Cc1c(Cl)cccc1NC(=S)NCC(c1cccnc1)N(C)C (centres undefined) | inactive: -9.1%
64 | O=C(Nc1ccncc1)c1ccc(S(=O)(=O)Nc2ccccc2)cc1 | inactive: 16.3%
65 | Cc1nn(CC(=O)NC2C(=O)N3C(C(=O)O)=C(CSc4nnnn4C)CSC23)cc1Br (centres undefined) | inactive: 0.671%
66 | C/C(N)=C(/C#N)C(=O)CSc1nc2ccccc2c(=O)n1CCCOC(C)C | inactive: 10.2%

Row | Structure (SMILES) | growth rescue (activation)
67 | O=C(CSc1ncn[nH]1)NCCc1ccc(Cl)cc1 | inactive: -23.4%
68 | Nc1nc2ccc(Cc3ccncc3)cc2s1 | inactive: -2.56%
69 | Cc1ccc(-c2csc(/C(C#N)=C(\O)CN3CCN(C(=O)c4ccco4)CC3)n2)cc1 | inactive: -9.69%
70 | Cc1cccn2c(Nc3ccccc3)c(-c3ccccn3)nc12 | inactive: -8.74%
71 | Cn1c(N)c(C(=O)COC(=O)Cc2ccc(Br)cc2)c(=O)n(C)c1=O | inactive: -3%
72 | OC(CNCc1ccccn1)c1ccccc1 (centres undefined) | inactive: 2.96%
73 | Cc1cccc(OCC(=O)NNC(=O)CCN2CCN(c3ccccc3)CC2)c1C | inactive: -6.85%
74 | Cc1cccc(C(=O)Nc2ccc(C(=O)/C=C/c3cccnc3)cc2)c1 | inactive: 5.45%
75 | O=C(Cn1cnc2ccccc2c1=O)Nc1ccc2c(c1)OCO2 | inactive: -4.64%
76 | COc1ccc(C(=O)N/C(=C\c2ccccc2)C(=O)N2CCOCC2)cc1 | inactive: -16.3%
77 | CCOC(=O)c1c(C)[nH]c(C(=O)NCCc2ccc(OC)c(OC)c2)c1C | inactive: 30.5%
78 | Cc1noc(C(=O)Nc2cc(Cl)ccc2O)c1Cl | inactive: 10.1%
79 | O=C(Nc1ccc([N+](=O)[O-])cc1)c1ccccc1 | inactive: 3.87%
80 | Cc1ccc(S(=O)(=O)NCCC(=O)NNC(=O)COc2ccc(Br)cc2)cc1C | inactive: 16%
81 | CCn1c(=O)cc(OCC(=O)NCCc2cccc(C)c2)c2ccccc21 | inactive: 7.61%
82 | COCCn1c(CCC(=O)O)ccc1-c1cccs1 | inactive: -20.8%
83 | O=C(/C=C/c1ccc(F)cc1)NNC(=O)CCN1CCN(Cc2ccccc2)CC1 | inactive: -7.24%
84 | CCCNC(=O)C1(C)CCN1C(=O)C1(c2ccccc2)CC1 (centres undefined) | inactive: 0.845%
85 | CC(=O)C1=C(C)Nc2ncnn2C1c1ccccc1F (centres undefined) | inactive: 7.22%
86 | Cc1ccc(C(=O)N[C@H](C(=O)OCc2cc(=O)n3c(n2)sc2ccccc23)C(C)C)cc1 | inactive: -1.49%
87 | CCCCN(C(=O)/C=C/c1ccc(OCC(C)C)c(OCC)c1)c1c(N)n(CCC)c(=O)[nH]c1=O | inactive: -9.43%
88 | COCCn1c(SCC(=O)Nc2ccc(F)cc2)nc2c(oc3ccccc32)c1=O | inactive: 4.99%

Row | Structure (SMILES) | growth rescue (activation)
89 | CC(=O)[C@H]1CCC2C3CC=C4C[C@@H](O)CC[C@]4(C)C3CC[C@@]21C (some centres undefined) | inactive: 6.07%
90 | CN(C)c1cc(NC(=O)CNC(C)(C)CC(C)(C)C)c2ccccc2n1 | inactive: -4.63%
91 | COc1ccc(CCNc2cc(C)nc3c(-c4ccccc4)cnn23)cc1OC | inactive: 9.45%
92 | CC(C)N1C(=O)CSC1c1ccc(Br)cc1 (centres undefined) | inactive: 5.36%
93 | COc1ccc(/C=C/C(=O)Nc2cccc(S(=O)(=O)N3CCCC3)c2)cc1OC | inactive: 2.96%
94 | COc1ccc(N2CC(C(=O)N/N=C/c3ccccc3)CC2=O)cc1 (centres undefined) | inactive: -5.49%
95 | COCCn1c(SCC(=O)NC(C)c2ccc(F)cc2)nc2ccccc21 (centres undefined) | inactive: -54.1%
96 | O=C(NCCc1ccccc1)C1CCN(c2ncccn2)CC1 | inactive: 3.45%
97 | CN1CCN(S(=O)(=O)c2cccc(C(=O)Nc3cc(C(N)=O)cc(C(N)=O)c3)c2)CC1 | inactive: -0.69%
98 | CC1CC1C(=O)OCC(=O)NC(=O)c1ccc(C(C)(C)C)cc1 (centres undefined) | inactive: -5.14%
99 | O=[N+]([O-])c1ccccc1SNc1ccc(Br)cn1 | inactive: 6.94%
100 | COc1ccccc1NC(=S)NNC(=O)c1ccncc1 | inactive: -0.968%
101 | COc1cccc(N2CCN(C(=O)CC(NC(=O)c3ccccc3)c3ccccc3)CC2)c1 (centres undefined) | inactive: 23.6%
102 | CSc1ccccc1C(=O)C1CCCN(C(=O)c2csnn2)C1 (centres undefined) | inactive: 9.2%
103 | O=C(CN1CCCCC1)N1CCN(S(=O)(=O)c2ccccc2)C1 | inactive: -10.5%
104 | OC[C@@H]1CN(Cc2ccccc2)C[C@H](n2cnc3c(N4CCCC4)ncnc32)O1 | inactive: 0.431%
105 | Cc1ccc2nc(NC(=O)C3CC3C)sc2c1 (centres undefined) | inactive: 19.3%
106 | Cc1[nH]nc(NNC(=O)c2ccccc2)c1[N+](=O)[O-] | inactive: 3.17%
107 | NC(=S)N/N=C1\CC(c2ccc3c(c2)OCCO3)Oc2ccc(F)cc21 (centres undefined) | inactive: 9.2%
108 | CCCCC(=O)NC(c1ccc(N(C)C)cc1)c1ccc2cccnc2c1O (centres undefined) | inactive: 25.5%
109 | CC(C)C(OC(=O)c1nsc(Cl)c1Cl)C(=O)NC1CCCCC1 (centres undefined) | inactive: 7.95%
